Results taken from PMC12136788.
The other results are listed elsewhere or left out.

T1: UNK ZnF1-3 (human, UniProt Q9C0B0 31-174)
T1 sequence: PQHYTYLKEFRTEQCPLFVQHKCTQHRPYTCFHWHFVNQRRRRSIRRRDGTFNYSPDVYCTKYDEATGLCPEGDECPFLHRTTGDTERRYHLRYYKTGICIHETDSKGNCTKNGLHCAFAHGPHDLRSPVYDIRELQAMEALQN

B1: 11681258_11681378_101_3pUTR_ENSG00000189067_ENST00000571688|human|control|control (ssRNA)
RNA: GGGAGUUCUACAGUCCGACGAUCCUCUACAGACGCGUCCGGACAGACCAAGACACUCUCUGUGCCUUCGGGCAUGUUACCCAUCCUCUCUGAGCUCGGCUUCCUGUCUGCAAAAUGGGCACAAUAGCGGUCCUGUCUCCUAAGCAACAGAGGAUUGAGCAUCA
B2: chr5:95128998:95128999:+_ENSG00000164292_ENST00000379982|hu_hu|FALSE|FALSE (ssRNA)
RNA: GGGAGUUCUACAGUCCGACGAUCCUUUUAAGACCACAGUGGUAGUUUUUUUCCAAAGAGAACUAAUAAACAUAUUAAGCUAUAUGGUAAUUUUUCUAACACCCACAUUGGUUUCGGUCAGAAGAAUUUUACUGGAACCUGGAGCAACAGAGGAUUGAGCAUCA
B3: chr10:33190432:33190433:-_ENSG00000150093_ENST00000302278|hu_hu|motif|central (ssRNA)
RNA: GGGAGUUCUACAGUCCGACGAUCUACAUUUUCAAAACCUGCACAUGAGUAAAACCAUGGCAAUAUUGCCCUAAAGCGGCCGGACUGUGACUAUGGAAAUUGCUACUUUGCAUUCAGUGUUGUGGGAUUUGCACGGGCAGUACUCAACAGAGGAUUGAGCAUCA
B4: chr13:3555642:3555643:+_ENSMUSG00000021218_ENSMUST00000059515|mus_mus|FALSE|FALSE (ssRNA)
RNA: GGGAGUUCUACAGUCCGACGAUCAUCAAACUUCUUAUACACAUCUCUCAUGGAGGUCUUCUUAGGAUCAACACCCUCGAAAGUUCUAGGAUCUUUUUCAUCAAAGUUGGCAACAUAAACCAGGAACUUCCUGAAACGGCGUUUCAACAGAGGAUUGAGCAUCA
B5: 59477578_59483500_149_3pUTR_ENSG00000137575_ENST00000447182|human|control|control (ssRNA)
RNA: GGGAGUUCUACAGUCCGACGAUCAAGCUUCUGACAAAAUUGCUGGAUUGGCAGGGUUUGCAGAAAAAGCAGUUUGAGCCUGAAUUACUUUGUCUACCUUCAAGUCUUCGAGAGAUGGAUAGAGAGACAUUUUUGCAGGAUUCUCAACAGAGGAUUGAGCAUCA
B6: chr2:42509997:42509998:+_ENSG00000143924_ENST00000318522|hu_mus|hu_hu_hu_mus_True|28_108 (ssRNA)
RNA: GGGAGUUCUACAGUCCGACGAUCUCGCUGAGUUCUCUCCUCAUAAUUAAACAGGACUACCACUGAGGCGAUAAAAUAAACUAUCUCCCCUGUGGGAAGCAGGUAUACAUUAGCUCUACAGUCCUUUCCUCGAUAACCGUAUACCAACAGAGGAUUGAGCAUCA
B7: 183603010_183603130_2061_3pUTR_ENSG00000218336_ENST00000511685|human|control|control (ssRNA)
RNA: GGGAGUUCUACAGUCCGACGAUCCGUGCAGGAGCCACUUUCUUGAAGAUACGUUCCGUGGCCGGAGCACUGGUCUGGACACAUGGUCUUCAGUAUUUCACAAUUGCUACCUCCCCAUCCUGGACUGCAGUGACAUUCCCCGUGCAACAGAGGAUUGAGCAUCA
B8: chr5:124080617:124080618:-_ENSMUSG00000049550_ENSMUST00000063905|mus_hu|motif|central (ssRNA)
RNA: GGGAGUUCUACAGUCCGACGAUCUUCCAUCUCUUUAGCAUGGGCAGCCCGUUCAGAGUCUUGUUGAUUCUGCAAAUUUUCGGUUUCGUGUUGGUAAUCUAGUCUCAUUUUCUCUAUUUGUGUUUUUAGUUCAGCAAAUUCUGCCAACAGAGGAUUGAGCAUCA
B9: 179016624_179018721_998_CDS_ENSG00000176783_ENST00000393438|human|control|control (ssRNA)
RNA: GGGAGUUCUACAGUCCGACGAUCUUUUAGCUGCUUCCACACAUCACUGUACAUUUCAUCCAGACCUUGCCGAGUUUGCUUGUAAGUCUCCAGCUCAACUUUGGUAUCCUGUUUUGUUAUCUCUACACUCUUUUCACUUCUUUCCAACAGAGGAUUGAGCAUCA
B10: chr2:48026839:48026840:+_ENSG00000116062_ENST00000540021|hu_hu|hu_hu_hu_mus_False|68_98 (ssRNA)
RNA: GGGAGUUCUACAGUCCGACGAUCAUAGUGAGCCACUAGAGUCCUAAAUCUGGAACAGUGGCGGUCAUCUGAAAACUGGCCGAUGAAAAACUUGCCCAGUGAAGUGUCCACAAAGCAAACACCAUACACACGAGUGUGACCAGACAACAGAGGAUUGAGCAUCA
B11: chr2:216983849:216983850:+_ENSG00000079246_ENST00000392132|hu_mus|FALSE|FALSE (ssRNA)
RNA: GGGAGUUCUACAGUCCGACGAUCCUUGUCGAUUGGAAAAGGCAAAAAGAACUGCAGAGAGAUGCCAGACUUCUUCAAGUUACAAAUUAUAACGUCCAGUUGGUCCUGGCUGAACGGGCUGCUGAGGUCAGUGAACACUUCAAUCAACAGAGGAUUGAGCAUCA
B12: chr2:73037555:73037556:-_ENSMUSG00000027108_ENSMUST00000028517|mus_mus|FALSE|FALSE (ssRNA)
RNA: GGGAGUUCUACAGUCCGACGAUCAAAGGCAUUCCCCAAGCCCUGCCCAUUGUGAGCUCCUUUUACAAGGCCAGCAAUAUCCACUACAUUUAGGAAAGCAGGAAUCUUGCUUGCUGGUUUAUGGUACUGGCAAAGAAAGUCGAACAACAGAGGAUUGAGCAUCA
B13: chr3:122261000:122261001:-_ENSMUSG00000039735_ENSMUST00000162409|mus_mus|motif|central (ssRNA)
RNA: GGGAGUUCUACAGUCCGACGAUCGUAAUCUUCAAAUGGAAAGUCUCCUGGAGGUUCAAAGCCAGACUUGAAGGAGUCGGCGGCCAUUUGAGAAUCUCUUCUUUCAUCAACUGAUUUUGCUGCAAGAAUCAUUCCUUCUAAACACAACAGAGGAUUGAGCAUCA
B14: chr10:33214929:33214930:-_ENSG00000150093_ENST00000302278|hu_hu|hu_hu_hu_mus_True|98_98 (ssRNA)
RNA: GGGAGUUCUACAGUCCGACGAUCAACAAGUUCAUUGAAUACUUCUCCUCUGUCAGUAAGACUAAGCACAUUUUUGUAGCUAAAUGGGCUGGUGCAGUUUUGUUCACUUGUACAAGGAUUUCUUAGCUUUGCUGGGGUUGUGCUCAACAGAGGAUUGAGCAUCA
B15: chr18:35748043:35748044:+_ENSMUSG00000037236_ENSMUST00000166793|perfect_dup|motif|central (ssRNA)
RNA: GGGAGUUCUACAGUCCGACGAUCUGUAUAAAAGAGUGAACACAGCUUACAGUAAAACCCUGUUUUAGGUAUCACAUAGUCGGUACCAACAGGAACAUUGGGCUGAUAUGGUCCAAUUCUAUACUCAUCUGGGAUUGUAUAGUCCAACAGAGGAUUGAGCAUCA
B16: chr5:128440902:128440903:+_ENSG00000066583_ENST00000173527|hu_mus|hu_hu_hu_mus_True|1_8 (ssRNA)
RNA: GGGAGUUCUACAGUCCGACGAUCUUGAACGGUGCUGCCAAGUCCUUUGGGGUAUUGUUCCGUUAUGAUAACUGGAAUCCCUAAGAUCCGAGCUCCUUGCAACAGUCUCUGUCCCACACUAAUGAUGUCCCCAAAAUACUUGAUCAACAGAGGAUUGAGCAUCA
B17: chr1:66488090:66488091:+_ENSMUSG00000015222_ENSMUST00000077355|mus_hu|FALSE|FALSE (ssRNA)
RNA: GGGAGUUCUACAGUCCGACGAUCAAGAUUUCAUUCCUAGAUCAGCGUAUGUGUGUCCCCACAAGAGUGGUGCUCAAAAAGCUUAAUUUGAGUCGUUAUCUUGAGAGUGAAGGCAAGAUAGGUUCUACCCCUUAACCCCACAAGCAACAGAGGAUUGAGCAUCA
B18: chr5:56168658:56168659:+_ENSG00000095015_ENST00000399503|hu_hu|FALSE|FALSE (ssRNA)
RNA: GGGAGUUCUACAGUCCGACGAUCUACGGUUUGCUGCUGUGCAGCUCUGAGGGAAGAAGGGGAAUCCACAGGACUUGACAACUCGUGGCUGUAGAAAUCAUGAGAUCUCCACUUAGAUCUACAAAGGGGACAUAUUAAAGGUUCCAACAGAGGAUUGAGCAUCA
B19: chr18:33747085:33747086:+_ENSG00000134759_ENST00000351393|hu_mus|FALSE|FALSE (ssRNA)
RNA: GGGAGUUCUACAGUCCGACGAUCAGACCAAAUGAUUCUACUAUGCACAGAAGUAAUUUUGUUGGUGAAUGCAAAGAGACUAAAAAAUGGAUCAAACUCCGAGGAAGUCGCAUCCUGUCUCUUCCACAAAGACCAGGUUCGAUCCAACAGAGGAUUGAGCAUCA
B20: chr2:73656703:73656704:-_ENSMUSG00000027104_ENSMUST00000100009|mus_mus|motif|central (ssRNA)
RNA: GGGAGUUCUACAGUCCGACGAUCAAGAAAUGGAAGUGGGAAGAGUGAUUCAGUAACACCCCCAUUUAUUAAGAUGCCACGGAAUCAAAGUGAAAUCAACCACAAUGAGUUAUGAUACAAUUUACACAUUGAGCACAGGAAAAUCAACAGAGGAUUGAGCAUCA
B21: chr11:29408400:29408401:+_ENSMUSG00000032740_ENSMUST00000040182|mus_hu|FALSE|FALSE (ssRNA)
RNA: GGGAGUUCUACAGUCCGACGAUCAGUUAAAGCACAACAGCUUUAUCUUGGGAAUGCCAUUUGCUGAAAAACCAUCUUACUAAAAAAAAGUUUCAGAAAAACACUCUUUACCAUGGGUUAACUUAUGAAUGCUUAGUGUUGCUUCAACAGAGGAUUGAGCAUCA
B22: 115647096_115647216_3754_3pUTR_ENSMUSG00000054414_ENSMUST00000067485|mouse|control|control (ssRNA)
RNA: GGGAGUUCUACAGUCCGACGAUCCGGACUGUUCAAGCUGUCCCAGAAGAGGCAACCAUAGCCAGCACCAUGCAGGAGGAAGCAGCAAAUUCUUCACUUCCAAGUAUUAGUUGAAGAACAGUAACCAGAGUGCAUGGCCGUGGGCAACAGAGGAUUGAGCAUCA

biological target: T1, UNK ZnF1-3; assay: nsRBNS (natural sequence RNA bind-n-seq); RBNS binding buffer (assumed for nsRBNS): 25 mM Tris pH 7.5, 150 mM KCl, 3 mM MgCl2, 0.01% Triton X-100, 500 ug/ml BSA, 20 U/ml SUPERase-In, 4 C; UNK is unkempt and MSI1 is Musashi-1; names of the RNAs are library labels; protein concentration not given here; high values mean tight binding

Row | Binder | binding signal
1 | B1 | 0.588 enrichment R
2 | B2 | 0.925 enrichment R
3 | B3 | 1.05 enrichment R
4 | B4 | 0.696 enrichment R
5 | B5 | 1.09 enrichment R
6 | B6 | 0.884 enrichment R
7 | B7 | 0.639 enrichment R
8 | B8 | 0.386 enrichment R
9 | B9 | 0.361 enrichment R
10 | B10 | 1.03 enrichment R
11 | B11 | 1.37 enrichment R
12 | B12 | 1.16 enrichment R
13 | B13 | 0.719 enrichment R
14 | B14 | 0.708 enrichment R
15 | B15 | 0.49 enrichment R
16 | B16 | 0.748 enrichment R
17 | B17 | 0.909 enrichment R
18 | B18 | 0.99 enrichment R
19 | B19 | 1.1 enrichment R
20 | B20 | 1.39 enrichment R
21 | B21 | 0.982 enrichment R
22 | B22 | 1.49 enrichment R
